Laboratory results: a collection of fitness landscapes (doi:10.1126/science.1257360)
Some of the results follow.

B1: PhoQ; a variant is named by its letters at X, in order, P23837 (parent)
chain: MKKLLRLFFPLSLRVRFLLATAAVVLVLSLAYGMVALIGYSVSFDKTTFRLLRGESNLFYTLAKWENNKLHVELPENIDKQSPTMTLIYDENGQLLWAQRDVPWLMKMIQPDWLKSNGFHEIEADVNDTSLLLSGDHSIQQQLQEVREDDDDAEMTHSVAVNVYPATSRMPKLTIVVVDTIPVELKSSYMVWSWFIYVLSANLLLVIPLLWVAAWWSLRPIEALAKEVRELEEHNRELLNPATTRELTSLVRNLNRLLKSERERYDKYRTTLTDLTHSLKTPLXXLQXXLRSLRSEKMSVSDAEPVMLEQISRISQQIGYYLHRASMRGGTLLSRELHPVAPLLDNLTSALNKVYQRKGVNISLDISPEISFVGEQNDFVEVMGNVLDNACKYCLEFVEISARQTDEHLYIVVEDDGPGIPLSKREVIFDRGQRVDTLRPGQGVGLAVAREITEQYEGKIVAGESMLGGARMEVIFGRQHSAPKDE

Variants of: B1
Test: enrichment ratio after two sorts for PhoP signalling (ratio (wild type AVST 3.29)); higher = more functional
Settings: with PhoP (E. coli)

Variant	enrichment ratio
PRVP	≤ 0.25
WVRW	≤ 0.25
RGHD	≤ 0.25
GVVK	≤ 0.25
ETTM	≤ 0.25
KTGR	≤ 0.25
FSMT	2.35
WHGQ	≤ 0.25
WMGY	≤ 0.25
TTGL	12.3
VIFT	≤ 0.25
YVMS	0.375
PDGN	≤ 0.25
SMQH	14.9
ESHI	≤ 0.25
MMEN	≤ 0.25
YRLP	≤ 0.25
YGKS	≤ 0.25
ESLR	≤ 0.25
QCWF	6.62
QLME	≤ 0.25
QHML	≤ 0.25
KILI	≤ 0.25
HWKV	≤ 0.25
AEVK	≤ 0.25

Variant	enrichment ratio
PIFS	≤ 0.25
FLNL	≤ 0.25
HSQP	≤ 0.25
LFVT	≤ 0.25
HWYQ	≤ 0.25
VFFR	≤ 0.25
FYTG	0.442
NMYF	≤ 0.25
YKND	≤ 0.25
NPGE	≤ 0.25
RDGA	≤ 0.25
YMRS	≤ 0.25
YTWM	≤ 0.25
MIKP	≤ 0.25
PETM	≤ 0.25
KRRS	≤ 0.25
MFCL	≤ 0.25
KYGI	≤ 0.25
VDKC	≤ 0.25
DEGM	≤ 0.25
GVKA	≤ 0.25
CTYI	≤ 0.25
HWKR	≤ 0.25
HEAH	≤ 0.25
KFRE	≤ 0.25

Variant	enrichment ratio
PKIY	≤ 0.25
SDDV	0.265
MNDP	≤ 0.25
KSRS	0.793
VDSS	≤ 0.25
TLYW	≤ 0.25
ICRM	≤ 0.25
YGQF	≤ 0.25
NRLL	≤ 0.25
TPMH	≤ 0.25
GQTA	≤ 0.25
DMYQ	≤ 0.25
GVTY	≤ 0.25
FPFH	≤ 0.25
PTNF	≤ 0.25
AIPI	2.44
PPKS	≤ 0.25
GAPA	≤ 0.25
TAMQ	8.34
RYHR	≤ 0.25
ICAE	≤ 0.25
QKEF	≤ 0.25
LCTT	≤ 0.25
SKTF	≤ 0.25
KVDE	≤ 0.25

Variant	enrichment ratio
ELCH	≤ 0.25
MELD	≤ 0.25
QMFP	≤ 0.25
VVVS	0.659
HVKW	≤ 0.25
LWTG	≤ 0.25
HRHK	≤ 0.25
SECN	23.5
PHFP	≤ 0.25
DNCN	≤ 0.25
VWLT	≤ 0.25
AFWS	≤ 0.25
FQSP	≤ 0.25
YEVV	1.59
TWTY	≤ 0.25
QTRK	≤ 0.25
AFYH	≤ 0.25
MVDW	≤ 0.25
KGAV	≤ 0.25
HRYK	≤ 0.25
MIPY	≤ 0.25
GNFS	≤ 0.25
